Measurements reported in US20250241301A1, “COMPOSITIONS AND METHODS FOR INHIBITING PATHOGEN GROWTH ON PLANTS AND IMPROVING CROP SAFETY” (priority 2024, published 2025).

System: potato tubers
Assay: T2H / propylene glycol vapor treatment of potato tubers, recirculating set-up, skin lesion count (Tables 5-8)
[1] = Table 6 (repeat experiment), Norland Red, T2H 0.27 mL/kg alone or in mixture, PG alone 0.27 mL/kg
[2] = Table 6 (repeat experiment), Yukon Gold, T2H 0.27 mL/kg alone or in mixture, PG alone 0.27 mL/kg
[3] = Table 7, Norland Red, T2H 0.10 mL/kg alone or in mixture, PG alone 0.10 mL/kg
[4] = Table 7, Yukon Gold, T2H 0.10 mL/kg alone or in mixture, PG alone 0.10 mL/kg

| SMILES | Total Number of Lesions/5 Tubers 96 h [1] | Total Number of Lesions/5 Tubers 96 h [2] | Total Number of Lesions/5 Tubers 96 h [3] | Total Number of Lesions/5 Tubers 96 h [4] |
| --- | --- | --- | --- | --- |
| CC(O)CO (centres unmarked) [PG, propylene glycol] | 3 | 9 | 3 | 2 |
| CCC/C=C/C=O [T2H, trans-2-hexenal] | 29 | 25 | 16 | 23 |
